Measurements taken from PubChem BioAssay AID488969 (Vanderbilt High Throughput Screening Facility, 2010).
Whole data set: some 110,000 compounds, median “z-score” near -0.1, cut for the highest 2% near 2. Some of the results follow. Active and inactive are the calls of the source.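 Rule for the calls: active = z-score in the third read window above 3 or below -3; inactive = the rest.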

Target: Metabotropic glutamate receptor 8 (Rattus norvegicus) (UniProt P70579)
Assay: rat mGluR8 modulators via GIRK flux, primary screen, cell-based, thallium flux, HTS (AID 488969)
Details: HEK293 rat mGluR8, GIRK (G protein-gated inwardly rectifying potassium channel) thallium flux, FluoZin2; at 10 µM; stronger effect = higher value; submaximal glutamate (EC20) added with thallium

Sequence of UniProt P70579 (P70579 whole entry, looked up): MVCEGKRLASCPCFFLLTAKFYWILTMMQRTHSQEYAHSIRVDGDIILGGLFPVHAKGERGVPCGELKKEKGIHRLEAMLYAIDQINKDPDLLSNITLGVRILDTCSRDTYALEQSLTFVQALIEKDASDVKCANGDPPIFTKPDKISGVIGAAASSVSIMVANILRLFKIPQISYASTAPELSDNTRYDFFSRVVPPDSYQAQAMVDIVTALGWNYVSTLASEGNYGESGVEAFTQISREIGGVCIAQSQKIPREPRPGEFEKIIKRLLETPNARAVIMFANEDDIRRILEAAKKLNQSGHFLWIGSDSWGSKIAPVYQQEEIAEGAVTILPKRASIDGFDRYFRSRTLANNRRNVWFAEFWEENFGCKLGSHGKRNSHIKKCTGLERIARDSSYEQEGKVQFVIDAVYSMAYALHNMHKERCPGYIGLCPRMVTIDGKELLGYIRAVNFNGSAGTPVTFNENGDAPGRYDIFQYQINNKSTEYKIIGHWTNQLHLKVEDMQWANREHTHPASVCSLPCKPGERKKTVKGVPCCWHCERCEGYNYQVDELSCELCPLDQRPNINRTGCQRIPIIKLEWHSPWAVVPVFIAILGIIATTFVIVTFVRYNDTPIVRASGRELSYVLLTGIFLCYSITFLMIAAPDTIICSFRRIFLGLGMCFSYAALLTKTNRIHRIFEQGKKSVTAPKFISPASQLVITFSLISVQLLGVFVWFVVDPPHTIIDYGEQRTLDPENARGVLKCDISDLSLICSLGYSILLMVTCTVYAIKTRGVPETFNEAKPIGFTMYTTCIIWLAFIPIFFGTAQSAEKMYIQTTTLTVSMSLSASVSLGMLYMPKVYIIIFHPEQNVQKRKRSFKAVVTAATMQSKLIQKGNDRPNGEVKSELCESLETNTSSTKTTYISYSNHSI

First: COc1cc(C=O)ccc1OCCCOc1ccccc1C(=O)O
Second: COc1ccccc1OCCNC(=O)c1ccccc1C
The z-score of the first is higher: -0.241 for the first, -0.299 for the second.

Going from `CCCCOCCCNS(=O)(=O)c1ccccc1` to `CCOc1ccc2nc(NCCNS(=O)(=O)c3ccccc3)c(C#N)cc2c1`, the z-score falls from 0.69 to -0.304.

First: CC(C)(Oc1cccc2ccccc12)C(=O)O
Second: CCN(C(C)=O)c1cccc2ccccc12
The z-score of the first is lower: -0.0885 for the first, 0.317 for the second.

Compared with `CC(C)(C)C1CCC(C(=O)OCC(=O)c2ccc[nH]2)CC1` (stereo not given), `CC(=O)N1CCC(N(CCCOC(C)C)C(=O)Nc2ccc(Cl)cc2)CC1` is lower in z-score: -0.197 for the first, -0.311 for the second.

First: O=S(=O)(/N=C(\Sc1ccc(Cl)cc1)c1ccccc1)c1ccccc1
Second: CS(=O)(=O)c1nc(-c2ccccc2)c(-c2ccccc2)[nH]1
The z-score of the first is higher: -0.32 for the first, -0.431 for the second.

Compared with `CCC(=O)Nc1c2c(nn1-c1ccc(OC)cc1)CS(=O)C2` (stereo not given), `COc1ccc(-c2cn3c(n2)CCC3)cc1` is lower in z-score: -0.0413 for the first, -0.12 for the second.

Compared with `CCc1ccccc1NC(=O)Cc1ccc(-n2cccc2)cc1`, `O=C(COC(=O)Cc1c[nH]c2ccccc12)Nc1cccc2ccccc12` is higher in z-score: -0.166 for the first, 0.055 for the second.

Going from `CCCn1c(Cc2ccccc2)n[nH]c1=S` to `C=CCn1c(-c2csc(-c3ccc(Cl)cc3)n2)n[nH]c1=S`, the z-score rises from 1.55 to 2.89.

Going from `COc1cc(S(=O)(=O)NCc2cccnc2)c(OC)cc1Br` to `CCS(=O)(=O)NCCc1ccc(OC)c(OC)c1`, the z-score rises from -0.11 to 0.0325.

Going from `COc1cc(/C=C2\SC(=S)N(CC(=O)Nc3ccccn3)C2=O)cc(OC)c1OC` to `COc1ccccc1NC(=O)CN1CCN(CC(=O)Nc2cc(NC(C)=O)ccc2OC)CC1`, the z-score falls from -0.0617 to -0.411.

First: COc1ccc(-c2[nH]c(-c3cccc(OC)c3)nc2SCC(=O)NCc2ccco2)cc1
Second: Cc1cccc(NC(=O)CSc2ccc(-c3ccco3)nn2)c1C
The z-score of the first is lower: -0.891 for the first, 0.521 for the second.

Going from `CC1CC2(CC(C)(C(=O)CSc3n[nH]c(-c4ccccc4Cl)n3)OC2=O)C(=O)O1` (stereo not given) to `O=c1nc(NCc2ccccc2Cl)cn[nH]1`, the z-score rises from 0.36 to 0.66.

Compared with `Cc1cccc(NC(=O)c2cc(Cl)nc3ccccc23)c1`, `CC/C(=N\NC(=O)c1cc(C)nc2ccccc12)c1ccc(C)s1` is higher in z-score: -0.228 for the first, -0.17 for the second.

Going from `COc1ccc(C(c2c(O)nc(SC)n(C)c2=O)c2c(O)nc(SC)n(C)c2=O)cc1O` to `Cc1occc1-c1nnc(SCC(=O)c2c(N)n(Cc3ccccc3)c(=O)n(C)c2=O)n1C`, the z-score rises from -0.292 to -0.00309.

Going from `CCCCNCc1cc(Br)c(OCC(=O)N2CCOCC2)c(OC)c1` to `CCc1c(C(=O)N2CCOCC2)csc1C`, the z-score rises from -0.31 to 0.547.

Going from `COC(=O)c1sc2nc(C)c([N+](=O)[O-])c(C)c2c1N` to `Cc1nn(CC(=O)OC(C)C(=O)Nc2ccccc2[N+](=O)[O-])c(C)c1[N+](=O)[O-]` (stereo not given), the z-score rises from -0.272 to -0.0274.

First: CCNC(=O)/C(C#N)=C/c1c(N2CC(C)OC(C)C2)nc2ccccn2c1=O (stereo not given)
Second: COc1ccccc1N1CCN(c2nc3ccccn3c(=O)c2C=O)CC1
The z-score of the first is lower: -0.338 for the first, -0.197 for the second.

Going from `CC(=O)NC(CCS(C)(=O)=O)C(=O)Nc1cccc2ccccc12` (stereo not given) to `Cc1cc(C)nc(N(C#N)Cc2cccc3ccccc23)n1`, the z-score falls from 0.39 to -1.03.

First: COn1c(C)c(C(C)=O)c2c3no[n+]([O-])c3ccc21
Second: CCc1cccc(C)c1N(C(=O)Cn1c(COC)nc2ccccc21)C(C)COC (stereo not given)
The z-score of the first is higher: 0.967 for the first, -0.328 for the second.

Compared with `N#CCC1c2ccccc2CCN1C(=O)Nc1cccc(Cl)c1` (stereo not given), `COCCNC(=O)/C(C#N)=C/c1cccc(NC(=O)c2ccccc2Cl)c1` is lower in z-score: -0.443 for the first, -0.602 for the second.

First: O=C(Nc1ccc(N2CCOCC2)c(Cl)c1)c1ccc(Br)o1
Second: O=C(NCCN1CCOCC1)c1ccc2ccccc2c1
The z-score of the first is higher: 0.575 for the first, 0.278 for the second.

First: Cc1noc(C)c1C(=O)N1CCN(Cc2ccccc2)CC1
Second: COc1ccccc1N1CCN(C(=O)c2cc(-c3ccc(Cl)cc3)on2)CC1
The z-score of the first is lower: 0.378 for the first, 0.953 for the second.

First: CCCNC(=O)NCc1ccc(N2CCCC2=O)cc1
Second: O=C1NCCN1Cc1ccc(F)cc1
The z-score of the first is higher: 0.113 for the first, -0.0461 for the second.

First: CCN1C(=O)C2(C(C#N)=C(N)Oc3n[nH]c(C(C)C)c32)c2ccccc21 (stereo not given)
Second: COc1cc(C2C(C#N)=C(N)Oc3n[nH]c(C)c32)ccc1OC(=O)c1ccccc1 (stereo not given)
The z-score of the first is higher: -0.0791 for the first, -0.446 for the second.

Going from `CCOc1cc(C(=O)NC(=S)Nc2cccnc2)cc(OCC)c1OCC` to `CCCOc1cccc(C(=O)NC(=S)Nc2cccc(NC(=O)c3ccccc3Cl)c2)c1`, the z-score rises from -0.0263 to 0.249.

Compared with `CCOC(=O)c1c(-c2ccccc2Cl)csc1NC(=O)c1cc(S(=O)(=O)N2CCOCC2)ccc1C`, `CC(C)C(NC(=O)c1ccc(S(=O)(=O)N2CCOCC2)cc1)c1nc2ccccc2[nH]1` (stereo not given) is higher in z-score: 0.00234 for the first, 1.1 for the second.

Compared with `Cc1ccc(-n2c(C)cc(/C=C3/C(=N)N4C(c5ccccc5)=CSC4=NC3=O)c2C)cc1`, `O=C(CSc1nnc(-c2ccccc2)n1-c1ccccc1)N1c2ccccc2Sc2ccccc21` is lower in z-score: -0.126 for the first, -1.52 for the second.

First: C/C(=N\NS(C)(=O)=O)c1ccccc1
Second: Cc1nn(-c2ccccc2)c(Cl)c1/C=N/NC(=O)OC(C)(C)C
The z-score of the first is higher: -0.114 for the first, -0.394 for the second.

Compared with `CCOC(=O)c1ccc(COC(=O)c2ccc(-c3nnc(-c4ccccc4)o3)cc2)o1`, `CCOc1ccc(N(CC(=O)N2CC=C(c3ccccc3)CC2)S(=O)(=O)c2c(C)noc2C)cc1` is lower in z-score: 0.116 for the first, -0.285 for the second.

Compared with `Cn1nccc1C(=O)Nn1cnnc1`, `Cn1cc(CNC(=O)C2CCCCC2)cn1` is lower in z-score: 0.137 for the first, -0.556 for the second.

First: Cc1ccc(NC(=O)C(CC(C)C)NC(N)=O)cc1Cl (stereo not given)
Second: Cc1cc(NC(=O)c2ccco2)ccc1NC(=O)Cc1cccs1
The z-score of the first is higher: 0.139 for the first, -0.307 for the second.

First: COc1cc(S(=O)(=O)N2CCC(N3CCCCC3)CC2)ccc1-n1cnnn1
Second: COC(=O)c1nc2n(n1)C(c1ccc(OC)c(OC)c1)C(C(=O)OC1CCCCC1)=C(C)N2 (stereo not given)
The z-score of the first is higher: 0.00551 for the first, -0.853 for the second.

Going from `C=CCn1c(=N)n(CC(O)COc2ccccc2OC)c2ccccc21` (stereo not given) to `Cn1c(=N)n(CC(O)c2ccco2)c2ccccc21` (stereo not given), the z-score falls from 1.12 to -0.143.

Compared with `COc1ccc2c(c1)c1nc3ccccc3nc1n2CCn1c(=O)oc2ccccc21`, `COc1cccc(NC(=O)Cn2c(=O)n(CC3CCCO3)c(=O)c3ccccc32)c1` (stereo not given) is lower in z-score: 0.00373 for the first, -0.419 for the second.

Compared with `O=C(Oc1cccc(C(=O)N2CCOCC2)c1)c1ccc(Br)cc1`, `O=C(Oc1ccccc1)N1CCN(c2ccc(F)cc2)CC1` is lower in z-score: 0.508 for the first, -0.29 for the second.

First: CN(CCc1ccccn1)C(=O)Nc1ccc(F)cc1
Second: O=C(NCc1cccnc1)c1cccc(F)c1
The z-score of the first is lower: -1.46 for the first, -0.0596 for the second.

Compared with `Cc1nn(CCc2n[nH]c(=S)n2-c2ccc(F)cc2)c(C)c1[N+](=O)[O-]`, `Cc1c(C(=O)Nc2nnc(SCc3ccccc3Cl)s2)cccc1[N+](=O)[O-]` is lower in z-score: -0.132 for the first, -0.21 for the second.

Going from `COc1ccc(OC)c(NC(=O)C23CC4CC(C2)CC(n2cnc(Br)n2)(C4)C3)c1` to `COc1cc(OC)cc(C(=O)NNC(=O)NC2CCCCC2)c1`, the z-score falls from 0.992 to -0.0486.

Going from `Cc1c(/C(O)=C2/C(=O)C(=O)N(Cc3cccnc3)C2c2cccs2)cnn1-c1ccccc1` (stereo not given) to `O=C(Nc1nc2ccccc2s1)c1cc(-c2ccccc2)nn1-c1ccccc1`, the z-score rises from 0.632 to 1.18.

Going from `O=C(NCc1ccc2c(c1)OCO2)C1CC(c2cccc(Br)c2)=NO1` (stereo not given) to `O=C(NCc1ccc2c(c1)OCO2)c1cc(-c2ccccc2Cl)on1`, the z-score falls from -0.0926 to -0.432.

Going from `O=C(NNC(=O)c1cc2cc3ccccc3nc2s1)c1cccc(C(F)(F)F)c1` to `O=C(N/N=C/c1ccccn1)c1cc(-c2ccc3ccccc3c2)n[nH]1`, the z-score falls from 0.241 to 0.0367.

Going from `O=S(=O)(c1cnc[nH]1)N1CCN(c2ccccc2)CC1` to `O=S(=O)(NCC(c1ccco1)N1CCN(c2ccccc2F)CC1)c1ccc2c(c1)OCCO2` (stereo not given), the z-score falls from 0.277 to -0.722.

First: NC(=O)C1CCN(C(=O)c2ccc(CS(=O)(=O)c3c(Cl)cccc3Cl)o2)CC1
Second: O=C(CS(=O)(=O)Cc1ccccc1)Nc1nc2c(s1)CCCC2
The z-score of the first is lower: -0.074 for the first, 0.14 for the second.

Going from `CC(C)CCN1CC(O)=C(c2nc(-c3ccc(Cl)cc3)cs2)C1=N` to `COCc1nc(-c2ccc(-c3ccccc3)nc2OC)no1`, the z-score rises from 0.053 to 0.212.

Going from `CCC(C)(C)NC(=O)C(OC(=O)c1ccco1)c1ccccc1OC` (stereo not given) to `Cc1ccccc1CCN(C(=O)Cn1nnc2ccccc21)C(C(=O)NC(C)(C)C)c1ccsc1` (stereo not given), the z-score rises from -0.233 to 0.0716.

Going from `COC(=O)COc1cccc(NC(=O)c2ccc(C)cc2)c1` to `CC1CN(S(=O)(=O)c2cccc(C(=O)Nc3ccc4c(c3)CCC4)c2)CC(C)O1` (stereo not given), the z-score falls from -0.0433 to -0.053.

First: Cc1occc1C(=O)Nc1ccc2c(c1)OCCO2
Second: Cc1nc2ccc(NC(=O)Cc3ccc4c(c3)OCCO4)cc2s1
The z-score of the first is higher: 0.341 for the first, 0.0176 for the second.

Going from `Cn1c(Sc2ccc(Br)cc2)c(C=O)c2ccccc21` to `O=[N+]([O-])c1cc(-c2cnc3ccccc3n2)ccc1Oc1ccc(Cl)cc1`, the z-score rises from -0.409 to 0.419.

Going from `N#C/C(=C/C=C/c1ccccc1)C(=O)Nc1ccccc1` to `COc1ccc(CC(=O)N(CC2CCCO2)c2nc3ccccc3s2)cc1` (stereo not given), the z-score falls from 0.0142 to -0.134.

Compared with `O=C(Cn1[nH]c(=O)c2ccccc2c1=O)NC1CCCCCC1`, `O=C(CN1CCCCC1)Nc1cccc2c1OCO2` is lower in z-score: 0.0122 for the first, -0.0222 for the second.

Going from `CN(CCC#N)S(=O)(=O)c1ccc2c(c1)c(=O)n(C)c(=O)n2C` to `Cc1cc(C)c2c3c(cn2n1)c(=O)n(C)c(=O)n3C`, the z-score rises from -0.372 to 0.576.

Compared with `CC(=O)c1c(C)[nH]c(C(=O)CSc2nc3ccccc3c(=O)n2CCCN2CCOCC2)c1C`, `CCOC(=O)C1=C(CN2CCSCC2)NC(=O)NC1c1cc(C)ccc1C` (stereo not given) is lower in z-score: 0.749 for the first, -0.515 for the second.

First: CCCCCN(C(=O)COC(=O)c1ccc(Br)o1)c1c(N)n(CCCC)c(=O)[nH]c1=O
Second: N/C(=N\OC(=O)c1ccc(Cl)c(Cl)c1)c1cccnc1
The z-score of the first is higher: -0.0299 for the first, -0.145 for the second.

Going from `NC(=S)N=Nc1c(O)[nH]c2ccc(F)cc12` to `N#Cc1c(N)c(C#N)c(-c2ccc(O)cc2)c2c1CCCC2`, the z-score falls from 1.48 to -0.574.

`Cc1c([N+](=O)[O-])cc(C(=O)N2CCOCC2)cc1[N+](=O)[O-]` was tested, and the z-score was -0.241.

In the case of `O=c1[nH]c(CS(=O)(=O)c2ccccc2)nc2ccccc12`, the z-score is reported as active: 3.08.
